{
  "source": "the supplement of paper PMC8728848",
  "assay_in_all_cases": "glycan array binding signal (z-score within array); higher = stronger binding",
  "conditions_in_all_cases": "glycan notation: IUPAC condensed, linker removed",
  "key": {"[1]": {"molecular_target": "GlcNAc(b1-4)GlcNAc(b1-4)GlcNAc(b1-4)GlcNAc(b1-4)GlcNAc(b1-4)GlcNAc", "method_in_brief": "(§1)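 Columns mapping to the same glycan were averaged after glycan names were converted to IUPAC-condensed notation. The data come from 3228 arrays in the Consortium for Functional Glycomics database, limited to those with an available protein sequence. Binding is reported as a within-array Z-score averaged across arrays of one protein sequence and across linkers.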"}, "[2]": {"molecular_target": "GlcNAc(b1-4)[GlcNAc(b1-6)]GalNAc", "method_in_brief": "as §1"}, "[3]": {"molecular_target": "GlcNAc(b1-6)Gal(b1-4)GlcNAc", "method_in_brief": "as §1"}, "GlcNAc(b1-6)GalNAc": {"molecular_target": "GlcNAc(b1-6)GalNAc", "method_in_brief": "as §1"}, "[4]": {"molecular_target": "GlcNAc6S(b1-3)Gal(b1-4)GlcNAc", "method_in_brief": "as §1"}, "Kdn(a2-3)Gal(b1-3)GalNAc": {"molecular_target": "Kdn(a2-3)Gal(b1-3)GalNAc", "method_in_brief": "as §1"}, "Kdn(a2-3)Gal(b1-3)GlcNAc": {"molecular_target": "Kdn(a2-3)Gal(b1-3)GlcNAc", "method_in_brief": "as §1"}, "Kdn(a2-3)Gal(b1-4)Glc": {"molecular_target": "Kdn(a2-3)Gal(b1-4)Glc", "method_in_brief": "as §1"}, "Kdn(a2-3)Gal(b1-4)GlcNAc": {"molecular_target": "Kdn(a2-3)Gal(b1-4)GlcNAc", "method_in_brief": "as §1"}, "[5]": {"molecular_target": "Kdn(a2-3)Gal(b1-4)[Fuc(a1-3)]GlcNAc", "method_in_brief": "as §1"}, "Kdn(a2-6)Gal(b1-4)GlcNAc": {"molecular_target": "Kdn(a2-6)Gal(b1-4)GlcNAc", "method_in_brief": "as §1"}, "[6]": {"molecular_target": "Man(a1-2)Man(a1-2)Man(a1-3)Man", "method_in_brief": "as §1"}, "[7]": {"molecular_target": "Man(a1-2)Man(a1-2)Man(a1-6)[Man(a1-3)]Man", "method_in_brief": "as §1"}, "Man(a1-2)Man(a1-3)Man": {"molecular_target": "Man(a1-2)Man(a1-3)Man", "method_in_brief": "as §1"}, "[8]": {"molecular_target": "Man(a1-2)Man(a1-3)[Man(a1-2)Man(a1-6)]Man", "method_in_brief": "as §1"}, "[9]": {"molecular_target": "Man(a1-2)Man(a1-3)[Man(a1-2)Man(a1-6)]Man(a1-6)[Man(a1-2)Man(a1-2)Man(a1-3)]Man", "method_in_brief": "as §1"}, "[10]": {"molecular_target": "Man(a1-2)Man(a1-3)[Man(a1-2)Man(a1-6)]Man(a1-6)[Man(a1-2)Man(a1-2)Man(a1-3)]Man(b1-4)GlcNAc(b1-4)GlcNAc", "method_in_brief": "as §1"}, "[11]": {"molecular_target": "Man(a1-2)Man(a1-3)[Man(a1-6)]Man(a1-6)[Man(a1-2)Man(a1-3)]Man(b1-4)GlcNAc(b1-4)GlcNAc", "method_in_brief": "as §1"}, "[12]": {"molecular_target": "Man(a1-2)Man(a1-6)[Man(a1-3)]Man(a1-6)[Man(a1-2)Man(a1-2)Man(a1-3)]Man", "method_in_brief": "as §1"}, "[13]": {"molecular_target": "Man(a1-2)Man(a1-6)[Man(a1-3)]Man(a1-6)[Man(a1-2)Man(a1-2)Man(a1-3)]Man(b1-4)GlcNAc(b1-4)GlcNAc", "method_in_brief": "as §1"}, "Man(a1-3)[Man(a1-6)]Man": {"molecular_target": "Man(a1-3)[Man(a1-6)]Man", "method_in_brief": "as §1"}, "[14]": {"molecular_target": "Man(a1-3)[Man(a1-6)]Man(a1-6)[Man(a1-2)Man(a1-3)]Man(b1-4)GlcNAc(b1-4)GlcNAc", "method_in_brief": "as §1"}, "[15]": {"molecular_target": "Man(a1-3)[Man(a1-6)]Man(a1-6)[Man(a1-3)]Man", "method_in_brief": "as §1"}, "[16]": {"molecular_target": "Man(a1-3)[Man(a1-6)]Man(a1-6)[Man(a1-3)]Man(b1-4)GlcNAc(b1-4)GlcNAc", "method_in_brief": "as §1"}, "[17]": {"molecular_target": "Man(a1-3)[Man(a1-6)]Man(b1-4)GlcNAc(b1-4)GlcNAc", "method_in_brief": "as §1"}, "[18]": {"molecular_target": "Man(a1-3)[Man(a1-6)]Man(b1-4)GlcNAc(b1-4)[Fuc(a1-6)]GlcNAc", "method_in_brief": "as §1"}, "Man(a1-6)Man": {"molecular_target": "Man(a1-6)Man", "method_in_brief": "as §1"}, "Man(b1-4)GlcNAc": {"molecular_target": "Man(b1-4)GlcNAc", "method_in_brief": "as §1"}, "MurNAc(b1-4)GlcNAc": {"molecular_target": "MurNAc(b1-4)GlcNAc", "method_in_brief": "as §1"}, "Neu5Ac(a2-3)Gal": {"molecular_target": "Neu5Ac(a2-3)Gal", "method_in_brief": "as §1"}, "[19]": {"molecular_target": "Neu5Ac(a2-3)Gal(b1-3)GalNAc", "method_in_brief": "as §1"}, "[20]": {"molecular_target": "Neu5Ac(a2-3)Gal(b1-3)GalNAc(b1-3)Gal(a1-4)Gal(b1-4)Glc", "method_in_brief": "as §1"}, "[21]": {"molecular_target": "Neu5Ac(a2-3)Gal(b1-3)GalNAc(b1-4)[Neu5Ac(a2-3)]Gal(b1-4)Glc", "method_in_brief": "as §1"}, "[22]": {"molecular_target": "Neu5Ac(a2-3)Gal(b1-3)GalNAc(b1-4)[Neu5Ac(a2-8)Neu5Ac(a2-3)]Gal(b1-4)Glc", "method_in_brief": "as §1"}, "[23]": {"molecular_target": "Neu5Ac(a2-3)Gal(b1-3)GalNAc6S", "method_in_brief": "as §1"}, "[24]": {"molecular_target": "Neu5Ac(a2-3)Gal(b1-3)GlcNAc", "method_in_brief": "as §1"}, "[25]": {"molecular_target": "Neu5Ac(a2-3)Gal(b1-3)GlcNAc(b1-2)Man", "method_in_brief": "as §1"}, "[26]": {"molecular_target": "Neu5Ac(a2-3)Gal(b1-3)GlcNAc(b1-2)Man(a1-3)[GlcNAc(b1-4)][Neu5Ac(a2-3)Gal(b1-3)GlcNAc(b1-2)Man(a1-6)]Man(b1-4)GlcNAc(b1-4)GlcNAc", "method_in_brief": "as §1"}, "[27]": {"molecular_target": "Neu5Ac(a2-3)Gal(b1-3)GlcNAc(b1-2)Man(a1-3)[Neu5Ac(a2-3)Gal(b1-3)GlcNAc(b1-2)Man(a1-6)]Man(b1-4)GlcNAc(b1-4)GlcNAc", "method_in_brief": "as §1"}, "[28]": {"molecular_target": "Neu5Ac(a2-3)Gal(b1-3)GlcNAc(b1-3)Gal(b1-3)GlcNAc", "method_in_brief": "as §1"}, "[29]": {"molecular_target": "Neu5Ac(a2-3)Gal(b1-3)GlcNAc(b1-3)Gal(b1-4)GlcNAc", "method_in_brief": "as §1"}, "[30]": {"molecular_target": "Neu5Ac(a2-3)Gal(b1-3)GlcNAc(b1-3)GalNAc", "method_in_brief": "as §1"}, "[31]": {"molecular_target": "Neu5Ac(a2-3)Gal(b1-3)GlcNAc(b1-4)Gal(b1-4)Glc", "method_in_brief": "as §1"}, "[32]": {"molecular_target": "Neu5Ac(a2-3)Gal(b1-3)GlcNAc(b1-6)GalNAc", "method_in_brief": "as §1"}, "[33]": {"molecular_target": "Neu5Ac(a2-3)Gal(b1-3)GlcNAc6S", "method_in_brief": "as §1"}},
  "note": "The other results are listed elsewhere or left out.",
  "data": [
    {"binder": "GS13455A-bfa-343-25-343 (Bacteroides fragilis) (protein) KDEIQIVDQDTSWQMDNKYIEEDIREQLGIDPFTDLVYLGYYGNPYTQLEAINDLVNTTLVGKNELSFKVKVTKPYKEDIKVNLMKEDKLVTDFPEMAEGIPLFPSENCTFEGGVLKAGELETTVKLTLKDVEKLNNLSGYVMAIKLTMEGSHEHLAIARTRSSYFVKLNLSIRLDNIDSSNKKIEGKGFNKEISFKSDIRPDKLGSLNDGNFTANNWYTSNANNYLTIILPEKQSLKGFRLDTNTSPSGSYMLKSCRVMVETPDGNWVNHGVFDRKSMDGIAYISFKKPVECTKVRFENMMAFNGRFSVDVNEVTAFR", "values": [
      {"measurement": "glycan array binding signal (z-score)", "setting": "[1]", "value": -0.011},
      {"measurement": "glycan array binding signal (z-score)", "setting": "[2]", "value": 0.259},
      {"measurement": "glycan array binding signal (z-score)", "setting": "[3]", "value": -0.248},
      {"measurement": "glycan array binding signal (z-score)", "setting": "GlcNAc(b1-6)GalNAc", "value": -0.656},
      {"measurement": "glycan array binding signal (z-score)", "setting": "[4]", "value": -0.789},
      {"measurement": "glycan array binding signal (z-score)", "setting": "Kdn(a2-3)Gal(b1-3)GalNAc", "value": -0.38},
      {"measurement": "glycan array binding signal (z-score)", "setting": "Kdn(a2-3)Gal(b1-3)GlcNAc", "value": 0.445},
      {"measurement": "glycan array binding signal (z-score)", "setting": "Kdn(a2-3)Gal(b1-4)Glc", "value": -0.418},
      {"measurement": "glycan array binding signal (z-score)", "setting": "Kdn(a2-3)Gal(b1-4)GlcNAc", "value": 0.438},
      {"measurement": "glycan array binding signal (z-score)", "setting": "[5]", "value": -0.619},
      {"measurement": "glycan array binding signal (z-score)", "setting": "Kdn(a2-6)Gal(b1-4)GlcNAc", "value": -0.249},
      {"measurement": "glycan array binding signal (z-score)", "setting": "[6]", "value": -0.655},
      {"measurement": "glycan array binding signal (z-score)", "setting": "[7]", "value": -0.171},
      {"measurement": "glycan array binding signal (z-score)", "setting": "Man(a1-2)Man(a1-3)Man", "value": -0.645},
      {"measurement": "glycan array binding signal (z-score)", "setting": "[8]", "value": -0.554},
      {"measurement": "glycan array binding signal (z-score)", "setting": "[9]", "value": -0.701},
      {"measurement": "glycan array binding signal (z-score)", "setting": "[10]", "value": -0.034},
      {"measurement": "glycan array binding signal (z-score)", "setting": "[11]", "value": -0.408},
      {"measurement": "glycan array binding signal (z-score)", "setting": "[12]", "value": 0.988},
      {"measurement": "glycan array binding signal (z-score)", "setting": "[13]", "value": -0.88},
      {"measurement": "glycan array binding signal (z-score)", "setting": "Man(a1-3)[Man(a1-6)]Man", "value": 0.245},
      {"measurement": "glycan array binding signal (z-score)", "setting": "[14]", "value": -0.013},
      {"measurement": "glycan array binding signal (z-score)", "setting": "[15]", "value": -0.129},
      {"measurement": "glycan array binding signal (z-score)", "setting": "[16]", "value": -0.501},
      {"measurement": "glycan array binding signal (z-score)", "setting": "[17]", "value": -0.715},
      {"measurement": "glycan array binding signal (z-score)", "setting": "[18]", "value": -0.639},
      {"measurement": "glycan array binding signal (z-score)", "setting": "Man(a1-6)Man", "value": 0.205},
      {"measurement": "glycan array binding signal (z-score)", "setting": "Man(b1-4)GlcNAc", "value": 0.213},
      {"measurement": "glycan array binding signal (z-score)", "setting": "MurNAc(b1-4)GlcNAc", "value": -0.095},
      {"measurement": "glycan array binding signal (z-score)", "setting": "Neu5Ac(a2-3)Gal", "value": 0.476},
      {"measurement": "glycan array binding signal (z-score)", "setting": "[19]", "value": 0.08},
      {"measurement": "glycan array binding signal (z-score)", "setting": "[20]", "value": 1.31},
      {"measurement": "glycan array binding signal (z-score)", "setting": "[21]", "value": 0.544},
      {"measurement": "glycan array binding signal (z-score)", "setting": "[22]", "value": 0.711},
      {"measurement": "glycan array binding signal (z-score)", "setting": "[23]", "value": -0.524},
      {"measurement": "glycan array binding signal (z-score)", "setting": "[24]", "value": 0.555},
      {"measurement": "glycan array binding signal (z-score)", "setting": "[25]", "value": 0.354},
      {"measurement": "glycan array binding signal (z-score)", "setting": "[26]", "value": -0.756},
      {"measurement": "glycan array binding signal (z-score)", "setting": "[27]", "value": 0.088},
      {"measurement": "glycan array binding signal (z-score)", "setting": "[28]", "value": -0.78},
      {"measurement": "glycan array binding signal (z-score)", "setting": "[29]", "value": 0.373},
      {"measurement": "glycan array binding signal (z-score)", "setting": "[30]", "value": 0.126},
      {"measurement": "glycan array binding signal (z-score)", "setting": "[31]", "value": -0.201},
      {"measurement": "glycan array binding signal (z-score)", "setting": "[32]", "value": -0.483},
      {"measurement": "glycan array binding signal (z-score)", "setting": "[33]", "value": 1.08}
    ]}
  ]
}
